Results taken from article PMC7819943, “Rice protein-binding microarrays: a tool to detect cis-acting elements near promoter regions in rice”.
The other results are listed elsewhere or left out.

biological target: T1, OsWOX13 (Oryza sativa, UniProt Q5QMM3 1-267); assay: protein-binding microarray (RPBM); PBS, 2% BSA, 51.3 ng/ul salmon testes DNA, 50 uM zinc acetate, 200 nM TF, 25 C, 1 h; high values mean tight binding; conditions: protein: recombinant; tags: N-terminal polyhistidine and DsRed monomer fusion (pET32a); label: CyDye5-dUTP incorporated in the synthesized complementary strand; 3' TTTTT single-stranded linker to array surface; dsDNA, one strand shown
T1 sequence: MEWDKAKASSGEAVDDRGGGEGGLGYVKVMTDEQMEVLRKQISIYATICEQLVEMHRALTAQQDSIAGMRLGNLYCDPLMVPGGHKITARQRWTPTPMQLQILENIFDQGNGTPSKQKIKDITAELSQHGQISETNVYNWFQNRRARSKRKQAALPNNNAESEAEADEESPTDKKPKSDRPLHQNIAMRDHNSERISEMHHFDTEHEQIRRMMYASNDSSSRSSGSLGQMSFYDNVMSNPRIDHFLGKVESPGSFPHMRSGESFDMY
Method in brief: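 Transcription factors were each fused at the N-terminus to a polyhistidine tag plus DsRed and expressed in E. coli BL21-CodonPlus before Ni–NTA purification. Binding to a double-stranded custom Agilent array was carried out with 200 nM protein at 25 °C for 1 h in PBS, 2% BSA, salmon testes DNA and 50 µM zinc acetate. The binding signal is per-feature fluorescence intensity, in arbitrary units, on an Axon 4000B scanner.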

Row | Sequence | binding signal
1 | TTTTCCTAATCAAACTTTTAACCCAAATATATAGTAACATCGGAGTCACCTAGTGCAG | 3490 fluorescence intensity (a.u.)
2 | GAAGACAAAATTTGGAAAATGGAACTGCGCTCGGAAACATCGGAGTCACCTAGTGCAG | 3550 fluorescence intensity (a.u.)
3 | TCCACAATTTGCTAATCATATTTCTGTTGATAATGATAATCGGAGTCACCTAGTGCAG | 7820 fluorescence intensity (a.u.)
4 | GTTGATTACTTCGTCCGTACTGCACCCCTATCATTTGGACCGGAGTCACCTAGTGCAG | 39600 fluorescence intensity (a.u.)
5 | CATATGATGATTATTTGGATCATTTTAGCTAGAATCTCTGCGGAGTCACCTAGTGCAG | 27700 fluorescence intensity (a.u.)
6 | ACCAATCACAACCATTCTTCTTCACTTACTTTCTCTTTTCCGGAGTCACCTAGTGCAG | 6630 fluorescence intensity (a.u.)
7 | CGAAACTTTGGACACATGCATAAAGCATTAAATATAGATACGGAGTCACCTAGTGCAG | 3880 fluorescence intensity (a.u.)
8 | CCAACCAATCACAACCCTTCACCATTCACTTTTCCTACCTCGGAGTCACCTAGTGCAG | 17400 fluorescence intensity (a.u.)
9 | GGTAGTAATTGATAGTGGGATTAACGCGAGAATTTAATTTCGGAGTCACCTAGTGCAG | 31500 fluorescence intensity (a.u.)
10 | ATAATTAATATATTGGCTCGAAAGCTAGCTTATACTAGCCCGGAGTCACCTAGTGCAG | 18300 fluorescence intensity (a.u.)
11 | TTAGATAATTTTGTATGAGTGTTAGCCGTCCACTTGCGCGCGGAGTCACCTAGTGCAG | 10500 fluorescence intensity (a.u.)
12 | TGTAAATATATTTTAAAGAGATAAATGAGAAGAAAGAAGGCGGAGTCACCTAGTGCAG | 3170 fluorescence intensity (a.u.)
13 | ACCAAAATTAAAAGTTTGAATAAATTACAACGATGTGATGCGGAGTCACCTAGTGCAG | 5230 fluorescence intensity (a.u.)
14 | TGTTCATTCTTAGCATAATTGAAGTTTGTGGCTTTTATAACGGAGTCACCTAGTGCAG | 4050 fluorescence intensity (a.u.)
15 | ATAAATTGATGCCCAATTTTCGAAGATGCTCATAGGGGTGCGGAGTCACCTAGTGCAG | 52500 fluorescence intensity (a.u.)
16 | GTGGTTGTATTAAATATATTGATAGTTAGGTATATGAATACGGAGTCACCTAGTGCAG | 4110 fluorescence intensity (a.u.)
17 | TAAACAGATAAGAAGATTTTGCTTGGGTTATCTGTGAGGGCGGAGTCACCTAGTGCAG | 3720 fluorescence intensity (a.u.)
18 | TTTGTTGAAATTATATCATTTCCGTTGTCATTTCCCACAACGGAGTCACCTAGTGCAG | 3170 fluorescence intensity (a.u.)
19 | AACAAAATTATAACCATAAATTTAAATGTGAATATTCCAACGGAGTCACCTAGTGCAG | 5380 fluorescence intensity (a.u.)
20 | TTATTAATTGTTACATTTTCTTTGTTTATATATACGCACACGGAGTCACCTAGTGCAG | 19000 fluorescence intensity (a.u.)
21 | GCAAATATTTAATTAATCACACGTTAATGTACTGCTTCGTCGGAGTCACCTAGTGCAG | 16900 fluorescence intensity (a.u.)

Row | Sequence | binding signal
22 | TAAATTTGTCAATTGGGACCTCCAGAAAATTTGGTTGGTACGGAGTCACCTAGTGCAG | 5590 fluorescence intensity (a.u.)
23 | TCATCAATAAACTACTCCTTTGATGATCTCCCCACGTTGGCGGAGTCACCTAGTGCAG | 3220 fluorescence intensity (a.u.)
24 | AAGAGTACTTATTGATGATCACAATACTAACAGAGCCTTTCGGAGTCACCTAGTGCAG | 3910 fluorescence intensity (a.u.)
25 | AATAATTAAACACCTTAGGTGGTATTTGTTTATACTGTAGCGGAGTCACCTAGTGCAG | 12000 fluorescence intensity (a.u.)
26 | ACCATGATTTGATAATATGGTGCTACAGTAAACATTGGCTCGGAGTCACCTAGTGCAG | 27400 fluorescence intensity (a.u.)
27 | CCGCTCAAATTACGCGTCTCCTCATCCCCGGCCGCGCGCCCGGAGTCACCTAGTGCAG | 3250 fluorescence intensity (a.u.)
28 | CCATGATTTTGATGGCCGACTGTCCCACAGGTAGGATACGCGGAGTCACCTAGTGCAG | 23800 fluorescence intensity (a.u.)
29 | GATGATGGATTGGAAAGGCAAGTAAGCTGGAGTAGGTGGTCGGAGTCACCTAGTGCAG | 38000 fluorescence intensity (a.u.)
30 | AAGTCCCTAATCACCGTCTGGACGCCGTGGTGACCATGGCCGGAGTCACCTAGTGCAG | 3520 fluorescence intensity (a.u.)
31 | GCCATAATTACGCAGGCCGCCATCGTCGTCGTCGTCTTCGCGGAGTCACCTAGTGCAG | 12600 fluorescence intensity (a.u.)
32 | CCGGTAAATCACTAATAACCGGCACCTATGAGACATATGCCGGAGTCACCTAGTGCAG | 5240 fluorescence intensity (a.u.)
33 | GATAAATTATACATGAGAAAGAGCTAGAATCCTTCTCAAACGGAGTCACCTAGTGCAG | 8110 fluorescence intensity (a.u.)
34 | ATATTAATTTATCTTCTACTTAATAACAATAATAGTGTAGCGGAGTCACCTAGTGCAG | 17700 fluorescence intensity (a.u.)
35 | CATGCTGATAATTGGAACGCTATATTGTTTTGTAATAGTACGGAGTCACCTAGTGCAG | 9350 fluorescence intensity (a.u.)
36 | TCAGCTTAATTTAAACGGTTCTTTGCTTTCCTGTAATATACGGAGTCACCTAGTGCAG | 7320 fluorescence intensity (a.u.)
37 | ACCAATCAATCAAGAACAAGAAGAGCTAGCTGCTAGCTGTCGGAGTCACCTAGTGCAG | 17000 fluorescence intensity (a.u.)
38 | ACCAGACATGCATTTGTGATTAAACTCCTGCAATATACTACGGAGTCACCTAGTGCAG | 4290 fluorescence intensity (a.u.)
39 | AAGTAATCACACACGTCTAATCACGGTGAGGCCACGCGAGCGGAGTCACCTAGTGCAG | 4410 fluorescence intensity (a.u.)
40 | AAATTAGATTGAATTTTGATGGCATGTTACGCTGTGTTCGCGGAGTCACCTAGTGCAG | 51100 fluorescence intensity (a.u.)
41 | GTTTCATTTTAATTGACGTTTTGGACAATGACACGGTCTACGGAGTCACCTAGTGCAG | 23000 fluorescence intensity (a.u.)
42 | CGAGACTATCATCTAATGGACAACTCATCTTTTAATTGTGCGGAGTCACCTAGTGCAG | 4330 fluorescence intensity (a.u.)
